In PubChem BioAssay (NCI) one finds growth data, which are given here for one compound.

The structures appear in SMILES notation. Where a structure was tested more than once in an assay, its records may differ in their call.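 Results are percent growth after 48 hours of single-concentration exposure. 100 means growth as in untreated cells, lower positive values show inhibition; negative values down to -100 show cell death.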 The source holds more than one record for some entries. This list holds those alone. Rule for the calls: active = growth percent below 10; inactive = the rest. An entry can have further records. This drug was run again and again over the years, at its own concentration, as given; each value is one run. Counts like (3×) say how often a value occurs here.

The test system of the assay is MALME-3M melanoma. In words: NCI-60 one-dose screen, 48 h (100 = growth as untreated, 0 = no growth, -100 = all killed).

As for `COc1cccc2c1C(=O)c1c(O)c3c(c(O)c1C2=O)C[C@@](O)(C(=O)CO)C[C@@H]3OC1CC(N)C(O)C(C)O1` (stereo not given in full), the growth result reads like this: (0.25 µM, runs of 2012) “inactive: 15.3, 17.3, 32.7, 30.9, 41.1, 43.3, 11.3, 10.5, 14.4, 23.3, 18.1, 11.7, 17.6, 19.3, 34, 35.2 (2×), 34.5, 30.1 (2×), 35.4, 22.7, 42.7, 29.5, 25.1, 11.2 (2×), 18, 22, 27.2, 16.6, 31.5, 30.3, 28.6, 30.8, 34.7, 27.8, 39.1, 25.5, 30.7, 33.8, 20.1, 34.1, 42.8, 40.1, 36.9, 19.2, 12.5, 23, 18.4, 16.2, 59.5, 59.2, 11.6, 17, 39.8, 13.6% and active: -11.1, 7.91, 4.73, 8.54, 0.498, 5.72, -1.12, 7.9, 6.21, 6.28, 7.54%”; (0.25 µM, runs of 2013) “inactive: 13.3, 17.5, 12.4, 33.1 (2×), 37.6, 34.2, 31.2, 28.5, 40.5, 40.1 (2×), 41.2, 33, 26.4, 28.4, 40.9, 37.1, 20.5, 37.5, 56.6, 52.7, 41.6, 33.8, 56.4, 51.2 (2×), 36.7, 26.9, 41.5, 39.9, 37.7, 29.4, 38.8, 41.7, 44.4, 43.9, 39.7, 30.3, 25.3, 11.2, 30.8, 35.4, 21.6 (2×), 10.3, 11.7, 12, 11.5, 30.7, 25.2, 23.6, 21.1, 13.7, 22.9, 28.9% and active: -8.83, -10.5, 3.37, 9.4, -7.78%”; (0.25 µM, runs of 2014) “inactive: 13.7, 16.8, 25 (2×), 12.1, 15.1, 17.9, 22.4, 19, 14.3, 24.3, 26.4 (3×), 13.6, 23.6, 22.5, 20.3, 18 (2×), 23.3, 27.8, 24.6 (2×), 27.5, 22.1, 19.1, 22.2, 33.3, 20.4, 21.8, 25.2, 21.1, 11.2 (2×), 12.2, 28.2, 26.6, 22.6, 16.4 (2×), 11, 16.1, 14.9, 18.7, 20.9, 19.7, 15.7, 24.2, 13.2, 16, 26.1, 21.3, 15.5% and active: -2.58, 6.69, 9.37, 3.19, -9.37, -5.72, 9.91, 2.26, 6.41, 6.32, 5.54, 8.65, 7.06 (2×), 8.19, 8.57, 3.28, 7.68, 9.93%”; (0.25 µM, runs of 2015) “inactive: 26.3, 24.2, 25.6, 22.7, 17.8, 17.5 (3×), 24.9, 20 (2×), 20.6, 22.2, 16.7, 12.6, 30.3, 14.4, 13.7 (2×), 10.6, 15.2, 10.1, 12.5, 10.4, 21, 12.4, 13.3, 18.7, 12.1, 20.3, 28.5, 18, 20.4, 36.7, 14.5, 31.2, 21.8 (2×), 10.3, 17.1, 11.8, 25.1, 15, 20.2, 13.4, 21.1 (2×), 26.5, 32.7, 21.5, 26.4, 32.5, 25.8, 35.2, 40.2, 35.4, 33.4, 41.5, 35.7% and active: 6.78, -1.87, -0.498, -3.49, -6.53, -10.6 (2×), -8.58, -1.58, 6.39, 9.8, 8.38, 7.84, 6.97, -0.337, 2.42, 3.66, 7.09, -1.32, 6.28, 9.6, 0.844, -7.31, 4.58, 7.03, 9.54, -3.15, 9.87%”; (0.25 µM, runs of 2016) “inactive: 17.9, 31, 29.8, 28.9, 41.3, 19.8, 17.8, 19.5 (2×), 10.9 (2×), 14.4, 27.1, 19.9, 18 (2×), 20.5, 20.2, 11.9, 17.6, 16.5 (2×), 11.7, 17.1 (3×), 15, 13.9, 14.3, 25.1, 12.5, 20.9, 15.6, 24.8, 14.5, 21.4, 22.1, 22.7 (2×), 18.8, 26.8, 21, 26.9, 28.1, 25.2, 29.5 (2×), 29.9, 34.7, 25.3, 28.7, 29.4, 27, 30.2, 30.8, 18.2, 16.4, 30.3, 21.6, 11.2, 21.2, 28, 21.3, 26.2, 25.8, 24.9, 31.3, 32.4, 32.3% and active: 1.72, 2.47, -3.57, 7.01, 6.65, -6.15, 8.09, 4.17, 9.11, 2.29, -3.64, -2.72, 4.21, -2.46, 9, -3.89%”; (0.25 µM, runs of 2017) “inactive: 34.4, 38.1, 31.5 (2×), 31.3, 27.9, 13.6, 17.8, 19.3 (2×), 10.9, 14.8, 12.8, 19.1 (2×), 24, 21.8 (2×), 22.2, 20.3 (2×), 28.1 (2×), 21, 27, 19.8, 23.8, 33, 25.8 (2×), 14.5, 12.7, 22, 23.6, 21.7, 18.1, 19.2, 20.5, 25.2, 26.6, 22.3 (2×), 23.4, 32.2, 35.4, 38.9, 27.7, 37.2, 28.2, 33.8, 28.7, 30.8, 27.2, 33.6, 42.7, 23.2, 27.1, 31.4, 18.8, 25, 27.3, 27.6, 22.1, 19.4, 34, 26.8% and active: -0.125, 2.34, -1.37, -3.89, 3.9, -1.15, 8.8, -0.237, 4.7, 6.7, 7.78, 5.47, 1.15, -1.1%”. Further, the growth entry runs as follows: (0.25 µM, runs of 2018) “inactive: 44.9, 48.5, 35.4, 37, 44.6, 45.8, 37.5, 39.3, 41.8, 39.9, 42.8, 43, 49, 49.7, 52, 42.9, 45.1, 42, 46.2, 28.6, 21.1, 23.2, 24.2, 27.2, 25.6, 21.5, 29.2, 32.5, 30.6, 30.9 (2×), 28.3, 28.8, 16.6, 31.7, 34.8, 15.2, 22.7, 17.8, 26.1, 25.3, 19.7, 20.5, 27.4, 27.9, 21.7, 30.5, 25.8, 22.8, 31.4, 20.2, 22.3, 29.8, 31% and active: 8%, 6.4%, 6.98%”; (0.25 µM, runs of 2019) “active: 3.63, 5.5, 1.91, 9.62, 6.83, 8.18, 7.58, 6.33% and inactive: 10.3, 22.9, 17.8 (2×), 19, 18.9, 19.3, 30.2, 32.8, 32.1 (2×), 20.9, 18.2, 20.6, 19.4 (2×), 25.3, 12.5, 16.4 (2×), 18.6, 20.3 (3×), 19.2, 17.9 (2×), 18.3, 19.9, 21.5, 28.6, 30.7, 28.3, 29.4, 14.3, 11.2, 10, 14.6, 14.7%”; (0.25 µM, runs of 2020) “inactive: 15.4, 18.1, 29.2, 21.3, 22.9, 20.3, 13.3, 11.8, 16.3, 12, 15.8, 25.6, 25.1, 37.9, 27.2, 33.7, 43.1, 33.8, 42.3, 39.3, 40.1, 41.2, 44% and active: 5.74%, 7.07%, 8.06%”; (0.25 µM, runs of 2021) “inactive: 51.5, 60.8, 22.1, 30.3, 28.4, 27.9, 28.9, 19.1, 21.3, 21.4, 19.5, 28.1, 21.1, 26.3, 20.6, 24.2, 24.5, 27.1, 22.7 (2×), 22.2 (2×), 27.3, 18.4, 13.2, 15.2, 20.1, 14.9, 20.5, 17.3, 16.8, 21.7, 20.3, 27.8, 27.2, 24.1, 26.1, 14.6, 36.4, 21.8, 19.8% and active: 7.24, 6.19, 7.59, 6.65, 3.8, 8.25, -2, 9.61, -0.4, -1.15, 2.82, -10.1, 7.22, 2.77%”; (0.25 µM, runs of 2022) “active: -70.2, -60.8, -70.4, -20.7, 8.51, 6.45, 1.61, 9.19, 1.14, -0.823, 9.15% and inactive: 19, 22.3, 17, 27, 20.2, 24.3, 10.1, 44.4, 55.4, 50.9, 57.1, 20.9, 23.2, 18.2, 24.8%”; (25 µM, runs of 1991) “active: -84.7, -84.6, -84.5, -96.3, -90.7, -69.6, -92.2, -98.4, -61.8, -79, -77.4, -90.8, -85.1, -56, -95.5, -81.1%”. For the same compound, the growth result by setting is: (25 µM, runs of 1992) “active: -77.4, -85.7, -100 (16×), -69.1, -90.7 (2×), -88.7 (3×), -80, -67, -79.9, -88.9, -85.8, -86.9, -90.2, -60.2, -94.8, -87.4, -89.6, -83.7, -82.2, -89.3, -99.9 (4×), -96.2, -96.6, -89.7, -95.9 (3×), -94, -96 (4×), -49.6, -91.1, -98.1 (2×), -67.6, -77.2, -97.5, -98.2, -96.3 (2×), -95.6 (3×), -81.1, -90.5, -75.7, -98.5 (2×), -99.6 (2×), -95.3 (2×), -98.6 (2×), -96.7, -90.9, -48.2, -92.9, -99.5 (2×), -99.7, -93.6 (3×), -93.7, -92.2 (2×), -98.8, -93.8, -93, -95.2, -91.3, -95, -86.8, -97, -92.6, -94.9, -85.2, -97.9, -93.2, -99.3, -98.9, -99.4, -86.3, -99.8, -96.9, -51.2, -91.5, -89.9, -98.4, -94.6, -81.9, -77.5, -93.5%”; (25 µM, runs of 1993) “active: -64.6, -94.9, -92.8, -95.6, -27.8, -95.5, -89.7, -94.1, -76.3, -71.8, -64.4, -20.6, -84.8 (2×), -73.9, -93.8, -74.6, -91.5, -85.9, -14.1, -71.9, -84.2, -80.7, -88.5, -81.8, -66.1, -67.3, -57.1, -76.5, -58.8, -84.3, -74.8, -92.7, -94.6, -65.2, -66.5, -42.8, -98, -75.1, -85.7, -86, -98.8, -94.5%”; (25 µM, runs of 1994) “active: -19.5, -98, -84.7, -85.7, -95.1, -72.6, -83.3, -90.8, -87.6, -51.1, -97.3, -74.4, -96.5, -88.2, -81.3, -68.6, -48.9, -50.8, -88.6, -75.4, -96.4, -98.2, -100, -47, -50, -94.9, -79.8, -97.6, -67.3, -91.5, -85.8% and inactive: 90.7%”.
